The full ranking holds about 33,000 sequences; the median of “E-score (-0.5 to 0.5)” is about -0.017, and the highest 2% start at about 0.3. This is one part of the list.

For the test, the target named is T1, Sut1 (UniProt P53032).
T1 sequence: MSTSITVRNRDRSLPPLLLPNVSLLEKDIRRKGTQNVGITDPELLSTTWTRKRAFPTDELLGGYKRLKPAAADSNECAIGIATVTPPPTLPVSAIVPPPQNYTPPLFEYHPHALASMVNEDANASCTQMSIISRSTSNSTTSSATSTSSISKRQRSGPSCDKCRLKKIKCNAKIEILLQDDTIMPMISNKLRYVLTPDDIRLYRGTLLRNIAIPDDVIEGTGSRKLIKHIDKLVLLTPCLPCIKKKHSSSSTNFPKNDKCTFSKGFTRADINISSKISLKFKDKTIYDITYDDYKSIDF
The test is described as follows: PBM E-score (8-mer binding enrichment) (E-score (-0.5 to 0.5)); higher = stronger / more preferred TF binding; most listed sequences are background and not binding sites. To be noted: protein concentration: 200 nM; construct: GST-full length. The procedure, abridged: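 Using PURExpress in vitro transcription/translation, GST-tagged yeast transcription factors were made in full-length or DNA-binding-domain form. These were applied at about 100-200 nM to double-stranded universal all-10-mer Agilent arrays, and bound protein was detected with fluorescent anti-GST. Scans were normalised with masliner before the Universal PBM Analysis Suite assigned E-scores to ungapped eight-base words pooled with their reverse complements.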
Consider ATAGAGCG, for which the “PBM E-score” value was found to be 0.0262.
In the case of ACTGTCAA, the “PBM E-score” value is -0.099.
In the case of ACTTCTCT, the “PBM E-score” value is -0.0607.
As for CTGACTTA, the “PBM E-score” value worked out at 0.186.
With AATTGCCC, the “PBM E-score” value is -0.0207.
For AGCAGGCT, the “PBM E-score” value was -0.209.
Consider ATCGCCCG, for which the “PBM E-score” value is -0.0476.
For the sequence ACCGGTCA, the “PBM E-score” value is -0.08.
In the case of CCAGAACG, the “PBM E-score” value was -0.104.
In the case of GAGTCCAA it was -0.00222; in that of GTACGCAC, -0.193; in that of CCATCGTC, -0.0517.
Take CACTGGTA: the “PBM E-score” value was -0.13.
With ATCACTAG, the “PBM E-score” value was -0.0162.
Consider AATAGAAT, for which the “PBM E-score” value worked out at 0.217.
With GGTACACC the figure was -0.299.
In the case of CAGAAAAC it was 0.00262; in that of ACGGCTCG, 0.128; in that of GTCAACAC, 0.0603.
Consider CAACAGAC, for which the “PBM E-score” value is -0.0762.
For TGACGGCA, the “PBM E-score” value was -0.281.
In the case of AATGTACT it was 0.149; in that of CTAGTCCC, -0.239.
In the case of TATTCGAA it was 0.0804.
Regarding CACCGGTA, the “PBM E-score” value is -0.12.
As to CAGCTGTA, the “PBM E-score” value is -0.0988.
AGATTATC: the “PBM E-score” value turned out to be 0.156.
With ATCGGTGA the figure was 0.0337.
Turning to AGTCCACG, the “PBM E-score” value was -0.171.
Turning to ATTACCGA, the “PBM E-score” value was found to be 0.224.
For CACATTCG, the “PBM E-score” value was 0.0133.
With CTCCCTAA, the “PBM E-score” value is -0.142.
On to AGCGAAGG, for which the “PBM E-score” value was -0.186.
With CCGTTATC the figure was 0.112; with AATGCTCA, -0.0771.
With CCCTAGCG, the “PBM E-score” value was -0.237.
With ACAATCAA the figure was 0.125; with GACGGAGC, 0.231.
For AAATGATG, the “PBM E-score” value came out at 0.16.
In the case of AACGACAA, the “PBM E-score” value is 0.192.
With ATAGATTA the figure was 0.242; with GCCCGAAA, 0.111; with CCGCTTTA, -0.0207.
As for GGGTGTTA, the “PBM E-score” value was -0.0598.
For AGACGCTG, the “PBM E-score” value is -0.192.
In the case of GCCGTCCA it was 0.00979; in that of CATCGCAG, -0.258.
For the sequence CGCGAACA, the “PBM E-score” value was -0.0835.
Consider CTTTCCGA, for which the “PBM E-score” value came out at 0.226.
Turning to ATGACCGC, the “PBM E-score” value was -0.139.
Regarding ACTGATCA, the “PBM E-score” value came out at 0.136.
AATTGCTC: the “PBM E-score” value came to 0.104.
Turning to AGGTATGA, the “PBM E-score” value was 0.0346.
In the case of ATGCAACG it was 0.0331; in that of ACAACGTC, -0.0808.
With GGCTTCCA, the “PBM E-score” value was -0.0931.
With ATGATAAC, the “PBM E-score” value is 0.168.
Turning to GATGAGCC, the “PBM E-score” value is -0.0961.
With CAGATCTA the figure was -0.205; with CACCATGA, -0.141; with ATCACATA, 0.218.
On to GACGGTAC, for which the “PBM E-score” value came out at 0.00029.
As for GGATTCCA, the “PBM E-score” value came out at 0.061.
With CACGGGTC the figure was -0.154; with CGCCCCTC, -0.317; with CGCAACCA, -0.101.
For the sequence CTTTGGGC, the “PBM E-score” value was found to be 0.00284.
Regarding CAACGCTA, the “PBM E-score” value was -0.0788.
Consider ACGAATGG, for which the “PBM E-score” value amounted to 0.0891.
With AATGCGCT the figure was -0.0347; with CGACGGTA, -0.0354.
With CATTGCAG, the “PBM E-score” value was -0.209.
Turning to GATTTCTA, the “PBM E-score” value is 0.245.
With CCAGAGAC the figure was -0.13; with AGTTGACC, 0.0376.
Turning to CCCAGCAA, the “PBM E-score” value is -0.0792.
In the case of GCTAACCC, the “PBM E-score” value was -0.142.
Regarding GTCAAGGA, the “PBM E-score” value is -0.168.
CGAGAGGA: the “PBM E-score” value was -0.043.
Take ATAGCTAG: the “PBM E-score” value was -0.276.
Regarding ACAGGAAG, the “PBM E-score” value is -0.0109.
In the case of GAAGAACA, the “PBM E-score” value was found to be 0.207.
Turning to AAACCTAA, the “PBM E-score” value stood at 0.051.
Turning to GAAGATTA, the “PBM E-score” value was 0.109.
With AACGAATT the figure was 0.0668.
Regarding TCATCACA, the “PBM E-score” value was -0.0829.
CCAACAAA: the “PBM E-score” value was 0.131.
Consider ACACAGCT, for which the “PBM E-score” value is -0.136.
With TAGGTGCA the figure was -0.19; with AGATGGAC, 0.0207; with GTCGATAA, -0.0703.
For ATGGGGGA, the “PBM E-score” value is -0.282.
With CAACTTGA the figure was 0.186.
With AAAGAAGT, the “PBM E-score” value was 0.0914.
Take ACTGAGCA: the “PBM E-score” value was -0.243.
With ACGCACGG, the “PBM E-score” value is -0.128.
As to CAGGTGCC, the “PBM E-score” value is -0.165.
Take GACTCATC: the “PBM E-score” value was -0.206.
With ATTCGGTA, the “PBM E-score” value was determined as 0.16.
On to AGCCAAAG, for which the “PBM E-score” value is -0.122.
On to CCGTGTGA, for which the “PBM E-score” value stood at 0.00325.
Take CGTGCAGA: the “PBM E-score” value was -0.148.
CATTCGAG: the “PBM E-score” value was 0.0226.
With AATTAAGG the figure was 0.0513; with TCTCGGAA, 0.215; with AAATGTGC, 0.155.
With GGCTCCGA the figure was 0.338; with TGCGACCA, 0.0542.
As to CAGGGAAC, the “PBM E-score” value is -0.163.
